Laboratory results from the supplement of paper PMC3334620.
Over roughly 33,000 sequences, “E-score (-0.5 to 0.5)” has its median near -0.053; the highest 2% begin near 0.37. The list shows a part of the results.

molecular target: Hap1 (UniProt P0CE41); experiment: PBM E-score (8-mer binding enrichment) (E-score (-0.5 to 0.5)); higher = stronger / more preferred TF binding; most listed sequences are background and not binding sites; conditions: protein concentration: 200 nM; construct: GST-DNA-binding domain
Procedure, shortened: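 Detection of bound protein used fluorescent anti-GST, with scans normalised by masliner. The proteins were GST-tagged yeast transcription factors applied at about 100-200 nM to universal all-10-mer Agilent arrays made double-stranded by primer extension. Each ungapped eight-base word, pooled with its reverse complement, was scored with an E-score from the Universal PBM Analysis Suite.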

UniProt P0CE41, sequence (P0CE41 whole entry, the tested form may be a part): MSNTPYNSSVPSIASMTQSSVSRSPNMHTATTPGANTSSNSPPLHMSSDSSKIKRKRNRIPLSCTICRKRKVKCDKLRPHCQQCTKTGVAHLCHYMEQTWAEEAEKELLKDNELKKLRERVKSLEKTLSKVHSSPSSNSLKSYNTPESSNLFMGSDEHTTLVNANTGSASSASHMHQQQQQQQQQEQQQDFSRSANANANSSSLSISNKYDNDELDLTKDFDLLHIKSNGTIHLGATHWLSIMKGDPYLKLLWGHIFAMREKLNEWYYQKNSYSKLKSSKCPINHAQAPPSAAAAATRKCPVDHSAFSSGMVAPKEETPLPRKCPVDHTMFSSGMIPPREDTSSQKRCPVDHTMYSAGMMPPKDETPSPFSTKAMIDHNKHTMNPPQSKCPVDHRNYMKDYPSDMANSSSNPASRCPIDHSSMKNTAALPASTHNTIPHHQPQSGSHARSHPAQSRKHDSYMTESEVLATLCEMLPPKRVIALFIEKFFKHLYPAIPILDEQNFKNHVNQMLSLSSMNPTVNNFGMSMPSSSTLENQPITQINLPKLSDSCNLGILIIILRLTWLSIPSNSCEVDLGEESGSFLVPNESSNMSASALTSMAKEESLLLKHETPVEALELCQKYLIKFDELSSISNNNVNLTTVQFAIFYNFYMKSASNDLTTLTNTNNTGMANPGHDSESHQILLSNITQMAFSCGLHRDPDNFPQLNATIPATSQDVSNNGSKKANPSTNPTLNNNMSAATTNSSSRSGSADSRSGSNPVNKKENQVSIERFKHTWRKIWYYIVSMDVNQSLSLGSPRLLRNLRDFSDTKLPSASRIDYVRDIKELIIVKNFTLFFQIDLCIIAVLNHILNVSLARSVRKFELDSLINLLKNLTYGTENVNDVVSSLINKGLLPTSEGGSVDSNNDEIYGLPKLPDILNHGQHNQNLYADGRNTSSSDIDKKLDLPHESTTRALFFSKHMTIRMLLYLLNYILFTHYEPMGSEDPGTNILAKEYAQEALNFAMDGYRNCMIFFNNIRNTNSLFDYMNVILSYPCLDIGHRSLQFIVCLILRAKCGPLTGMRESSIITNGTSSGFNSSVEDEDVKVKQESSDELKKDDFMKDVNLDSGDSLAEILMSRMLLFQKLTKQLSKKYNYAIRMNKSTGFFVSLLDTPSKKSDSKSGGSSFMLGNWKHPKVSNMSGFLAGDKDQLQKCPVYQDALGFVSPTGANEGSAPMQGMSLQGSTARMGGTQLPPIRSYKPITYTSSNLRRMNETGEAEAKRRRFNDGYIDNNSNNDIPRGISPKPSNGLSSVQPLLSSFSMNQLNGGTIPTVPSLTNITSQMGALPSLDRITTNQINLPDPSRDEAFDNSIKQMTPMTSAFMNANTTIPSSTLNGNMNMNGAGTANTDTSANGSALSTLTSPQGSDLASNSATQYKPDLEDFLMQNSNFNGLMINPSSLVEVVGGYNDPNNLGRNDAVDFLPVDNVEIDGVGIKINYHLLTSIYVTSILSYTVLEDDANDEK

| Sequence | PBM E-score |
| --- | --- |
| AACTTCAG | -0.156 |
| AAGTGTAC | -0.269 |
| GGTTGAAA | 0.00999 |
| GTGATTGA | 0.00585 |
| CGCAAACC | 0.0113 |
| ACCTGCTG | -0.058 |
| AAGGAAGA | -0.121 |
| AAACCCGA | 0.439 |
| AGGCATGC | -0.214 |
| CGCGAGAC | -0.0718 |
| CCCATGTA | -0.0209 |
| AGGCAGAC | -0.163 |
| GACTTCTA | -0.185 |
| ACTCGACT | -0.297 |
| ACGGTGGA | -0.062 |
| GAGCCCAC | 0.0496 |
| CCTGAACA | -0.0369 |
| CCTAAGTC | -0.00871 |
| AGTGAAAT | -0.18 |
| CTGGCCTC | -0.00516 |
| CCTCTAAG | -0.337 |
| GGGCGTAA | 0.217 |
| ACTTCACC | 0.136 |
| AGCTTATA | -0.0398 |
| CCCTGAGC | -0.0326 |

| Sequence | PBM E-score |
| --- | --- |
| CATTGGAA | -0.104 |
| ACCATCAG | -0.159 |
| CGGGGGAC | 0.191 |
| CAAAGTAG | -0.151 |
| AATCTCCA | -0.0624 |
| ACTATAGG | -0.22 |
| ATCGGGTG | 0.37 |
| CTGCCCCA | -0.186 |
| ATACACGC | 0.0491 |
| GCTATGAA | -0.124 |
| GAAACTAA | -0.0577 |
| AACACAAT | -0.263 |
| ATTGTACG | -0.164 |
| GTCCAGTA | -0.0168 |
| AATGTGCT | -0.0885 |
| TCCGGTCA | 0.385 |
| ACGCTTTC | -0.176 |
| CTGGCATC | -0.354 |
| AGGGCCTA | 0.0252 |
| AATCCGCA | 0.247 |
| CTGGCGTA | -0.261 |
| CTATGGTC | -0.183 |
| AAGGTATC | 0.0637 |
| AGCTTTCA | -0.172 |
| ACCCCGAT | 0.416 |

| Sequence | PBM E-score |
| --- | --- |
| AATGGCCA | -0.0907 |
| AGCGTCGA | -0.064 |
| CAAACAGC | -0.117 |
| CGACGGTC | 0.182 |
| GGTTGGAC | -0.119 |
| AAGTGCTA | -0.231 |
| TGGCTACA | -0.267 |
| CAAACAAA | -0.214 |
| AAGGGAGA | -0.226 |
| CACCTTGC | -0.136 |
| GCTGCATA | -0.161 |
| GATCATGA | -0.121 |
| CTCATCAC | -0.221 |
| AAGGGCCA | -0.224 |
| CGCGCAAA | 0.126 |
| TCCACTAA | 0.141 |
| ACTCCTAA | -0.0276 |
| ACTGCGTA | -0.223 |
| ATAACATA | 0.0323 |
| CGCCCGAG | 0.396 |
| CTGGGTAA | -0.22 |
| ATTGACCG | 0.226 |
| CCCAGATA | -0.0133 |
| ATCTTATA | -0.0548 |
| ACCATTCA | -0.202 |

| Sequence | PBM E-score |
| --- | --- |
| ACAGCCGC | 0.0417 |
| CAACGCGG | 0.214 |
| ATAGAGTA | -0.148 |
| TCGACACA | -0.246 |
| GGTGCGAA | 0.0879 |
| ACAAGCCG | 0.104 |
| GAACACGA | -0.0354 |
| GGTTCAAC | 0.0371 |
| AAGATAGT | 0.0499 |
| GGGGCGTA | 0.00742 |
| CCGGCTGA | 0.314 |
| CACTACCG | -0.00174 |
| ACTTTGTC | -0.0965 |
| CCAGCTCA | -0.211 |
| CCAAGCCA | -0.215 |
| AAGAAAAG | -0.0558 |
| TCGTACAA | -0.21 |
| CACTACTG | -0.229 |
| GAAGGCCA | -0.219 |
| AATAACAA | -0.162 |
| ATAAAGAA | -0.101 |
| TAGTCATA | -0.0485 |
| GGAAGACA | -0.107 |
| AATACCAT | -0.0062 |
| AAAAGGTA | -0.109 |

| Sequence | PBM E-score |
| --- | --- |
| ACTCCGAA | 0.397 |
| ACTATTAG | 0.00767 |
| CATGTAAA | -0.186 |
| GATAAAAC | 0.249 |
| CCGAGTCA | 0.191 |
| TACCCGGA | 0.38 |
| CCAATGGC | -0.142 |
| AGTCAGCC | -0.13 |
| CACTAGGC | 0.015 |
| AGGAGTGG | -0.174 |
| CACCAAAA | -0.135 |
| ACTACGGA | 0.238 |
| AACACTGC | -0.0932 |
| ATTCAAGC | 0.0416 |
| TCTGGTCA | -0.224 |
| CAATCATA | 0.0273 |
| TAAGGGCA | 0.086 |
| ACCAGGGC | -0.213 |
| ATCGGTAG | 0.205 |
| GAGACCGC | 0.0393 |
| CGCTTGTC | 0.0215 |
| GTGCTGTA | 0.028 |
| CATGAATC | -0.025 |
| AATCGTAA | 0.0178 |
| CCAGCATC | -0.0468 |

| Sequence | PBM E-score |
| --- | --- |
| CTACCCCA | -0.0337 |
| CTGATCTA | -0.144 |
| AGCAGCGG | 0.178 |
| ACCGCTCT | -0.0532 |
| ATGGCTCC | -0.0376 |
| CCCGGTCG | 0.336 |
| AGCTAGAA | -0.229 |
| AGCTGAGA | -0.143 |
| GGACGACC | 0.0942 |
| CAGCAACG | 0.0492 |
| AAACGTTC | -0.288 |
| AAATTGCC | 0.118 |
| GAGGCTCC | 0.0204 |
| TAAAGTTA | -0.0896 |
| CCGCGACC | 0.17 |
| ATAGTTTG | -0.13 |
| AAGTTCCA | -0.0472 |
| CAAGGGCC | -0.0829 |
| AGCCACGC | -0.249 |
| TCCCCCCA | -0.287 |
| CAAATGAA | -0.0465 |
| GCCTTGAA | -0.261 |
| AATCCTAG | -0.0377 |
| ATGCGATA | 0.185 |
| GCGGTTTA | 0.0605 |

| Sequence | PBM E-score |
| --- | --- |
| ATGCGAGG | -0.117 |
| CCCGCAGA | 0.146 |
| AAAACCCC | 0.187 |
| TCTACACA | -0.223 |
| GCGAACCA | 0.0323 |
| CCACGCAG | -0.17 |
| ATGAAAGG | -0.0624 |
| AATTATAA | 0.0705 |
| TACCTTGA | -0.0879 |
| TAAGAAGA | 0.135 |
| ATACCGAT | 0.288 |
| AAAGATGC | -0.325 |
| ACCATACT | -0.111 |
| CGACTCCC | -0.0668 |
| CTAATAGC | 0.0235 |
| ATGTCAAG | -0.259 |
| AAATAGGC | 0.169 |
| AGTATGGG | -0.239 |
| GAAGACCC | 0.027 |
| TAAATGGA | -0.177 |
| CCCAAATA | -0.0486 |
| GAGGCGCA | 0.0393 |
